From PubChem BioAssay AID686979 (National Center for Advancing Translational Sciences (NCATS), 2013)
Out of some 420,000 compounds screened, about 50,000 (12%) were called active. This list was built around the results that the source calls inconclusive (neither active nor inactive); the mix of calls is not that of the screen. Calls come from the whole dose curve; as a rule, active = well fitted inhibition curve with a large enough effect; inconclusive = small, poorly fitted or top-dose-only effect; inactive = flat fitted curve, though single readings scatter. No potency is given beside an inconclusive call; the fits are too rough. More than one record can exist for a structure, and the calls need not agree.

Experiment: qHTS for Inhibitors of human tyrosyl-DNA phosphodiesterase 1 (TDP1): qHTS in cells in presence of CPT; note: nearly all actives have a fitted effect of over 55% in size
Conditions: chicken DT40 Tdp1-/-;hTDP1 cells + 20 nM CPT, ATP luminescence, 48 h; series mostly up to 46.2 µM
Description: Human tyrosyl-DNA phosphodiesterase 1 (TDP1) is a novel repair gene, and we propose to use it as a new target for anticancer drug development. TDP1 is not an essential protein, but under treatment with topoisomerase I poison (camptothecin: CPT), TDP1 works as a critical factor for cell survival. To directly identify novel TDP1 inhibitors active in a cellular environment, we have knocked-out the Tdp1 gene in chicken DT40 cells (Tdp1-/-) and generated a complemented counterpart cells that contains a stable transfection of the human TDP1 gene (Tdp1-/-;hTDP1 cells). For the primary screen, Tdp1-/-;hTDP1 cells will be exposed to small molecules in the presence or absence of CPT, and their growth kinetics will be evaluated after 48 hours by measuring ATP activity. […] The hit compounds will then be evaluated in the presence or absence of CPT using Tdp1-/- cells. […] In tertiary assays, biochemical gel-based assays will be used to assess whether the hit compounds specifically target TDP1. To this end, we have screened this cell line against the MLSMR in two primary screens. In one screen we add CPT and in the other we screen in the absence of CPT; this AID represents the screen where CPT was present. NIH Chemical Genomics Center [NCGC] NIH Molecular Libraries Probe Centers Network [MLPCN] MLPCN Grant: MH095538 Assay Submitter (PI): Yves Pommier, NCI
DT40-hTDP1 cells with 20 nM Camptothecin (add 20 microL of 1 mM CPT stock in 1 L of cell culture medium) were dispensed at 400 cells/5microL/well in tissue culture treated 1536-well white wall/solid bottom assay plates (Greiner Bio-One North America, NC, U.S.A.) using a Multidrop Combi 8 channel dispenser (Thermo Fisher, Waltham, MA, USA). 23 nL compounds and controls were transferred using the pin tool (Kalypsys, San Diego, CA, USA) to the assay plates. The assay plates were then incubated at 37 masculineC for a minimum 48 hr. Three microL of Cell Titer Glo solution was added to the plates and incubated at RT in dark for 30 min. Luminescence was read using ViewLux (Perkin Elmer) with 1 sec exposure slow speed, high gain and 2x binning.
Potency is the fitted concentration of half-maximal effect; tags give direction and shape of the fitted curve.

For CCOc1ccc(N(Cc2cc3ccc(C)cc3[nH]c2=O)C(=O)COC)cc1, which Potency is on record?
The Potency was inconclusive [inhibitor, partial curve, poor fit].

For CC(C)(C)c1ccc(C(=O)NCC(=O)OCC(=O)c2ccc3c(c2)-c2ccccc2C3)cc1, which Potency is on record?
The Potency was “inactive”.

With O=c1c2ccccc2n(Cc2cccc(Cl)c2)c(=O)n1CCc1ccccc1 as the molecule, how does the Potency read?
The Potency was inconclusive [inhibitor, single point].

Which Potency does the source give for COc1ccc(-c2cc(C(C)=O)c(C)n2CCC(=O)Nc2cc(C)ccc2OC)cc1 here?
Its Potency is active: 16.4 µM.

Which Potency does the source give for CCOC(=O)N1CCN(C(=O)c2cn(CC(C)C)c(=O)c3c2c2ccccc2n3C)CC1 here?
Its Potency is inconclusive [inhibitor, single point].

With NC(=O)COC(=O)CC1CC2CCC1C2 (stereo not drawn) as the molecule, how does the Potency read?
The Potency was “inactive”.

Which Potency does the source give for Cc1cccc(S(=O)(=O)NC(=O)C2(C)CCN2C(=O)Cc2ccc(-c3ccccc3)cc2)c1 (stereo not drawn) here?
Its Potency is “inactive”.

Which Potency does the source give for COc1ccc(N2CCN(C(=O)c3c(-c4c(F)cccc4Cl)noc3C)CC2)cc1 here?
The Potency was “inactive”.

With O=C1c2ccccc2C(=O)c2c1ccc(O)c2O as the molecule, how does the Potency read?
The Potency was “inactive”.

Which Potency does the source give for CCC(C(=O)Nc1ccc(N2CCOCC2)c(S(=O)(=O)Nc2ccccc2OC)c1)c1ccccc1 (stereo not drawn) here?
Its Potency is inconclusive [inhibitor, single point].

Which Potency does the source give for c1cnc2ccc3ncccc3c2c1 here?
The Potency was inconclusive [inhibitor, partial curve, poor fit].

For CCN1C(=O)/C(=C2\C=Cc3ccccc3N2CC)SC1=S, which Potency is on record?
Its Potency is active: 14.6 µM.

Which Potency does the source give for CC(C)C[C@@H](CN1CCC[C@H]1CN1C(=O)C(=O)NC[C@@H]1Cc1ccccc1)N1C[C@H](Cc2ccc(O)cc2)N(CCc2ccccc2)C(=O)C1=O here?
Its Potency is inconclusive [inhibitor, single point].

With COc1ccc(-c2ccc(OC)c([C@H]3[C@H]4C=CC[C@@H](C)[C@@H]4C(=O)N3Cc3ccccc3)c2)cc1C as the molecule, how does the Potency read?
Its Potency is inconclusive [inhibitor, partial curve].

For CC(=O)OC1CC2C(C)(C)C(O)CC[C@@]2(C)C2CC[C@@]3(C)C(c4ccoc4)OC(=O)C4O[C@@]43[C@]12C (stereo partly drawn), which Potency is on record?
The Potency was inconclusive [inhibitor, single point].

For CC(=O)Nc1nonc1-c1nnc(SCC(=O)Nc2cc(C)ccc2C)n1-c1ccccc1, which Potency is on record?
Its Potency is inconclusive [inhibitor, single point].

For O=C(NCc1ccncc1)C1Cc2c(-c3ccc(Cl)cc3)ccnc2O1 (stereo not drawn), which Potency is on record?
Its Potency is inconclusive [inhibitor, partial curve, poor fit].

Which Potency does the source give for Nc1nc(N)nc(-c2ccccn2)n1 here?
Its Potency is “inactive”.

With COc1ccc(S(=O)(=O)N2CCOCC2)cc1NC(=O)CO/N=C/c1ccccc1OC(F)F as the molecule, how does the Potency read?
Its Potency is inconclusive [inhibitor, single point].

Which Potency does the source give for CC(=O)Nc1nc(CCN2C(=O)c3ccccc3C2=O)cs1 here?
Its Potency is “inactive”.

With O=C(c1ccccc1)N1CCC(c2nc(-c3ccc(S(=O)(=O)N4CCOCC4)cc3)no2)CC1 as the molecule, how does the Potency read?
The Potency was inconclusive [inhibitor, partial curve, poor fit].

For O=C(CC[C@H]1O[C@@H](n2ccc(=O)[nH]c2=O)[C@H](O)[C@@H]1O)NCC(c1ccccc1)c1ccccc1, which Potency is on record?
The Potency was “inactive”.

For N#CC1=C(N)OC2=C(C(=O)CCC2)C1C1C=CCCC1 (stereo not drawn), which Potency is on record?
The Potency was “inactive”.

Which Potency does the source give for COc1ccc(CNc2nc3c(S(=O)(=O)c4ccccc4)nnn3c3ccc(Cl)cc23)cc1 here?
The Potency was inconclusive [inhibitor, full curve].

With O=C(Nc1ccc(C(F)(F)F)cc1)C1CCCN1S(=O)(=O)c1cccc2cccnc12 (stereo not drawn) as the molecule, how does the Potency read?
The Potency was inconclusive [inhibitor, single point].

Which Potency does the source give for COc1ccc(S(=O)(=O)Nc2cccc3c2O[C@H](CN(C)CC2CC2)[C@@H](C)CN([C@H](C)CO)C3=O)cc1 here?
Its Potency is “inactive”.

With O=[N+]([O-])c1ccc2c(c1)C=CC2 as the molecule, how does the Potency read?
Its Potency is inconclusive [inhibitor, single point].

For CCC(C)c1ccc(OCC(=O)Nc2ccc(CN3CCOCC3)cc2)cc1 (stereo not drawn), which Potency is on record?
Its Potency is “inactive”.

Which Potency does the source give for O=C(c1ccc(S(=O)(=O)c2ccccc2)cc1)N1CCc2ccccc2C1 here?
The Potency was inconclusive [inhibitor, single point].

With COc1ccc(NC(=O)c2oc3c(c2C)-c2nn(Cc4c(F)cccc4Cl)cc2CC3)c(OC)c1 as the molecule, how does the Potency read?
Its Potency is inconclusive [inhibitor, single point].

For CCOCCCNCc1ccc(OCc2ccccc2Cl)cc1, which Potency is on record?
Its Potency is inconclusive [inhibitor, single point].

With Cc1ccc(COc2ccc(-c3nnco3)cc2)cc1 as the molecule, how does the Potency read?
The Potency was “inactive”.

For Nc1nc(NCC2CCCO2)nc(Nc2cccc(F)c2)c1[N+](=O)[O-] (stereo not drawn), which Potency is on record?
Its Potency is inconclusive [inhibitor, single point].

With CCC(=O)N1c2ccc(S(=O)(=O)CCC(=O)N3CCN(c4ccccc4F)CC3)cc2CC1C (stereo not drawn) as the molecule, how does the Potency read?
The Potency was inconclusive [inhibitor, single point].

With O=C(CSc1nnc(C2CCCCC2)n1-c1ccccc1)NCc1ccco1 as the molecule, how does the Potency read?
The Potency was inconclusive [inhibitor, single point].

Which Potency does the source give for Cc1oc2c(CN3CCCCC3C)c(O)ccc2c(=O)c1-c1ccc(Br)cc1 (stereo not drawn) here?
The Potency was “inactive”.

For COCC(C)n1c(SCc2ccc(C(=O)OC)o2)nc2ccccc2c1=O (stereo not drawn), which Potency is on record?
The Potency was active: 7.31 µM.

Which Potency does the source give for Cc1cc(C)c2c(CC(=O)Nc3nnc(C(C)C)s3)coc2c1 here?
The Potency was inconclusive [inhibitor, single point].

For Fc1ccccc1CNCCCSc1nnnn1-c1ccccc1, which Potency is on record?
The Potency was active: 16.4 µM.

Which Potency does the source give for CCN(C[C@H]1N[C@@](C)(C(=O)OC)[C@H]2C(=O)N(C)C(=O)[C@@H]12)C(=O)COc1ccccc1 here?
The Potency was inconclusive [inhibitor, full curve].

Which Potency does the source give for CNc1cccc(-c2cc(OC)c(OC)c(OC)c2)n1 here?
Its Potency is inconclusive [inhibitor, partial curve].

Which Potency does the source give for Cc1onc(-c2ccccc2)c1C(=O)N1CCN(S(=O)(=O)c2ccccc2Br)CC1 here?
The Potency was inconclusive [inhibitor, single point].

With O=C(CSc1nc(=O)[nH]c2c1CCCC2)Nc1cc(C(F)(F)F)ccc1Cl as the molecule, how does the Potency read?
Its Potency is inconclusive [inhibitor, single point].

For CCc1ccccc1OCCCCN1CCCCC1, which Potency is on record?
The Potency was inconclusive [inhibitor, single point].

Which Potency does the source give for O=C(CCc1ccccc1)Nc1ccc(S(=O)(=O)N2CCOCC2)cc1 here?
The Potency was inconclusive [inhibitor, single point].

Which Potency does the source give for COC(=O)c1cc(NC(=O)c2cc(C(C)(C)C)nn2Cc2cccc(C)c2)ccc1N1CCOCC1 here?
The Potency was inconclusive [inhibitor, single point].

Which Potency does the source give for CCn1cc(CN2CCN(Cc3ccc(OC)c(C)c3C)C(CCO)C2)c(C)n1 (stereo not drawn) here?
Its Potency is inconclusive [inhibitor, single point].

Which Potency does the source give for Cc1cc(C)n(-c2nnc(C)n2/N=C/c2cc(Br)ccc2OCc2ccccc2)n1 here?
Its Potency is inconclusive [inhibitor, single point].

For Cc1cc(/C=C(\C#N)C(=O)O)c(C)n1CC1CCCO1 (stereo not drawn), which Potency is on record?
Its Potency is inconclusive [inhibitor, single point].

With CCN(CCCNC(=O)CNC(=O)c1nn(-c2ccc(OC)cc2)c(=O)c2ccccc12)c1cccc(C)c1 as the molecule, how does the Potency read?
Its Potency is inconclusive [inhibitor, single point].

With CCc1nc(N)c(C#N)c(-c2ccc(O)c(OC)c2)c1C as the molecule, how does the Potency read?
The Potency was “inactive”.

Which Potency does the source give for COc1ccccc1CNC(=O)[C@H](C)NC(=O)C1CCN(C(=O)[C@@H](N)CC(C)C)CC1 here?
Its Potency is “inactive”.

For Brc1ccc(C[n+]2ccccc2)cc1, which Potency is on record?
The Potency was inconclusive [inhibitor, single point].

Which Potency does the source give for O=C(c1ccc(COc2ccccc2Cl)o1)N1CCN(Cc2ccc3c(c2)OCO3)CC1 here?
Its Potency is active: 16.4 µM.

With O=C1CCSC2(C(=O)N(Cc3ccc(F)cc3)c3ccccc32)N1c1ccccc1 (stereo not drawn) as the molecule, how does the Potency read?
Its Potency is active: 7.31 µM.

For COc1ccccc1NC(=O)c1cc(C(=O)Nc2ccccc2OC)cc([N+](=O)[O-])c1, which Potency is on record?
The Potency was “inactive”.

For O=C(CSc1nnc(-c2n[nH]c3ccccc23)n1-c1ccccc1)Nc1ccccc1Cl, which Potency is on record?
Its Potency is inconclusive [inhibitor, single point].

Which Potency does the source give for O=C(CCN1CCN(c2ccccc2)CC1)Nc1ccccc1F here?
The Potency was “inactive”.

For CCCCCCOC(=O)C1=C(C)NC(=O)NC1c1ccc2c(c1)OCO2 (stereo not drawn), which Potency is on record?
The Potency was “inactive”.

For CCc1ccccc1NC(=O)CSC1=C(C#N)C(c2ccc(O)c(OC)c2)C2=C(CCCC2=O)N1 (stereo not drawn), which Potency is on record?
The Potency was active: 20.6 µM.

With C/C(O)=c1/ccc2cccc3nc(C)nc1c23 as the molecule, how does the Potency read?
The Potency was inconclusive [inhibitor, single point].

For CCOC(=O)c1ccccc1NC(=O)CSc1ccc(-c2sc(-c3ccccc3)nc2C)nn1, which Potency is on record?
The Potency was inconclusive [inhibitor, single point].

With CN(C(=O)Cc1c(C(=O)O)n(C)c2ccccc12)c1cccc(C(F)(F)F)c1 as the molecule, how does the Potency read?
Its Potency is “inactive”.

Which Potency does the source give for CC(C)c1ccc(NC(=O)C2CCCN(S(=O)(=O)c3ccc(Br)s3)C2)cc1 (stereo not drawn) here?
Its Potency is inconclusive [inhibitor, single point].

For COc1ccc([C@H]2/C=C\CN(S(=O)(=O)c3ccc4ccccc4c3)[C@@H](C)C(=O)N2Cc2ccc(F)cc2)cc1, which Potency is on record?
Its Potency is inconclusive [inhibitor, partial curve, poor fit].

With CC(C)(C)C(=O)Cn1ncc(NC2CC2)c(Br)c1=O as the molecule, how does the Potency read?
The Potency was “inactive”.

With CN1/C(=C\C(=O)c2ccco2)C(C)(C)c2ccccc21 as the molecule, how does the Potency read?
The Potency was active: 2.59 µM.

For Cc1cc(C)c2c(=O)c(C#N)coc2c1, which Potency is on record?
Its Potency is “inactive”.
